Assay results reported in ChEMBL document CHEMBL4513135, “CO-ADD screening of IQOG CSIS (Spain) compounds”.
Several values for one entry are separate records, joined by “and”; a condition that tells them apart may be missing. Equal values may be shown once. This is one part of the list. Entries with a potency or affinity are not part of this list.

Test system: Acinetobacter baumannii
Conditions: Concentration 32 ug.mL-1, ASSAY_TEST Inhibition of Bacterial Growth, detection method Absorption (OD600), MEDIA CAMHB, plate type 384well, NBS, CORNING #3640, time 18 hr

Compound | Inhibition [%] | Inhibition (32 ug/mL)
Cl.ClCCCCN1CCCCC1 | 0.01 | –
Cc1ccc(C2c3c(nc4c(c3N)CCCC4)Oc3ccc4ccccc4c32)cc1 (stereo not drawn) | -14.46 | –
Cc1nc(NCc2ccccc2)c2cnn(-c3ccccc3)c2n1 | -6.62 | –
CCOC(=O)C1=C(C)OC(N)=C(C#N)C1c1ccc(F)cc1 (stereo not drawn) | 10.38 | –
Cl.ClCCCCCN1CCCCC1 | -5.71 | –
N#CC1=C(N)NC(=O)CC1c1ccccc1 (stereo not drawn) | -9.54 | –
C#CCN(C)Cc1cc2cc(OCCCC3CCN(Cc4ccc(OC)c5ncccc45)CC3)ccc2n1C | 2.88 | –
Cc1ccc(CNNC(=O)c2c[nH]c3ccccc23)cc1 | -10.96 | –
CC#CCN(Cc1ccccc1)c1nc(N)c(C#N)cc1C#N | 1.09 | –
C=C1CN(C)c2ncc(C#N)c(=N)n21 | 0.64 | –
C=C1CN(C)c2c(C#N)c(-c3ccccc3)c(C#N)c(=N)n21 | -1.06 | –
Nc1c2c(nc3ccc([N+](=O)[O-])cc13)CCCC2 | 1.74 | –
Cn1c(CNNC(=O)c2ccco2)cc2ccccc21 | 12.28 | –
O=C1OC(c2ccccc2)=NC1=Cc1ccccc1Cl | 1.28 | –
COc1ccccc1C1c2ccc3ccccc3c2Oc2nc3c(c(N)c21)CCCC3 (stereo not drawn) | -4.98 | –
C#CCNc1nc(NCCC2CCN(Cc3ccccc3)CC2)c(C#N)cc1C#N | 7.59 | –
CN1C/C(=C\Cl)n2c1c(C#N)c(-c1ccccc1)c(C#N)c2=O | 1.38 | –
CC#CCN(Cc1ccccc1)c1nc(N)c(C#N)c(-c2ccccc2)c1C#N | 5.1 | –
N#Cc1c(-c2cccc([N+](=O)[O-])c2)c2ccc3ccccc3c2oc1=O | – | 3.35% and 1.61% and 0.73%
CN(C)c1nc(N)c(C#N)c(-c2ccccc2)c1C#N | 2.72 | –
N#Cc1c(N)nc(NC2CCN(Cc3ccccc3)CC2)c(C#N)c1-c1ccccc1 | 11.43 | –
CCOC(=O)/C(C#N)=C\c1ccc(Cl)cc1 | 7.09 | –
CN(N=O)C(=O)NC1(C(=O)O)CC1c1ccccc1 (stereo not drawn) | -1.93 | –

Compound | Inhibition [%] | Inhibition (32 ug/mL)
CSC1=NC(=Cc2cn(C)c3ccccc23)C(=O)N1C | -0.26 | –
Cl.N#Cc1c(Cl)nc(N)nc1NCCO | 7.93 | –
CS(=O)(=O)O[C@H]1CC[C@H](OS(C)(=O)=O)CC1 | 15.97 | –
N#CC1=C(Cl)Oc2c(ccc3ccccc23)C1c1cccc([N+](=O)[O-])c1 (stereo not drawn) | -8.51 | –
NNC(=O)c1cc2ccccc2n1Cc1ccccc1 | -7.92 | –
COC(=O)C1CCN(Cc2ccccc2)CC1 | -1.76 | –
CCCCNNC(=O)c1cc2ccccc2[nH]1 | 4.18 | –
COc1cccc(C2c3c(nc4c(c3N)CCCC4)Oc3ccc4ccccc4c32)c1 (stereo not drawn) | -9.55 | –
COc1ccc2cc(C3C4=C(CC(C)(C)CC4=O)Oc4nc5c(c(N)c43)CCC5)c(Cl)nc2c1 (stereo not drawn) | 6.3 | –
CCOC(=O)c1c[nH]c2ccc(OC)cc12 | 5.01 | –
Cc1nn(-c2ccccc2)c2ncnc(NCc3ccccc3)c12 | 3 | –
CCOC(=O)C1=C(C)OC(N)=C(C#N)C1c1ccco1 (stereo not drawn) | 7.08 | –
C/C(Cc1ccccc1)=N/NC(=O)c1c[nH]c2ccc(O)cc12 | -4.87 | –
COc1cc(C=NNC(=O)Cc2c[nH]c3ccccc23)ccc1O | -1.21 | –
O=C(Cc1cccc2ccccc12)N/N=C/c1c[nH]c2ccccc12 | 3.78 | –
CC(=O)Oc1ccc(C=C2N=C(c3ccccc3)OC2=O)c(OC(C)=O)c1 | 7.89 | –
O=C1OC(c2ccc([N+](=O)[O-])cc2)=NC1=Cc1ccccc1 | -1.38 | –
CC1CC(=O)Nc2c1c(Cl)nc1nc3c(c(N)c21)CCCC3 (stereo not drawn) | 2.21 | –
O=C(N/N=C/c1cccc(Cl)c1)c1cc2ccccc2[nH]1 | -1.48 | –
CC(=O)Nc1n[nH]c2nc(N)c(C#N)c(-c3ccccc3)c12 | 5.41 | –
COC(=O)C(=Cc1ccccc1)NC(=O)c1ccccc1 | -5.12 | –
Cn1ccnc1C1c2c(nc3c(c2N)CCC3)Oc2ccc3ccccc3c21 (stereo not drawn) | -1.81 | –
CN(C)c1ccc(C(=NNC(=O)c2cc3ccccc3[nH]2)c2ccc(N(C)C)cc2)cc1 | -10.66 | –

Compound | Inhibition [%] | Inhibition (32 ug/mL)
COC1=C(C#N)C(c2ccccc2)C(C=O)=C(Cl)N1 (stereo not drawn) | 8.41 | –
Cl.ClCCCN1CCCCC1 | 0.47 | –
N#Cc1c(NC2CCC(Cc3ccccc3)CC2)nc(NC2CCN(Cc3ccccc3)CC2)c(C#N)c1-c1ccccc1 (stereo not drawn) | 10.4 | –
C#CCNc1ccc(Cl)nn1 | 13.58 | –
Cc1ccc(C2c3c(Cl)nnnc3Oc3ccc4ccccc4c32)cc1 (stereo not drawn) | -1.86 | –
NC1(C(=O)O)CC1c1ccc2c(c1)OCO2 (stereo not drawn) | -9.01 | –
Cc1cnc2ccc(Cl)cn12 | 1.77 | –
CCOc1nc(N)c(C#N)cc1C#N.Cl | 5.7 | –
C#CCN(C)c1nc(N)c(C#N)cc1C#N | – | 12.81% and -3.64%
Cl.Nc1c2c(nc3c1C(c1ccccc1)c1ccc4ccccc4c1O3)CCCC2 (stereo not drawn) | -26.54 | –
O=C(NNCCc1ccccc1)c1cc2ccccc2[nH]1 | -8.77 | –
C#CCN(C)Cc1cc2cc(OCCCC3CCN(C(=O)OC(C)(C)C)CC3)ccc2n1C | 11.4 | –
COc1ccc(C2c3c(nc4c(c3N)CCCC4)Oc3ccc4ccccc4c32)cc1OC (stereo not drawn) | -3.51 | –
C#CCN(C)Cc1cc2cc(OCCCCC3CCN(Cc4ccccc4)CC3)ccc2n1C | 6.24 | –
Cn1cc(/C=C2\NC(=S)NC2=O)c2ccccc21 | -6.57 | –
COc1ccc(C2C(C#N)=C(Cl)Oc3c2ccc2ccccc32)cc1OC (stereo not drawn) | -5.78 | –
O=Cc1c[nH]c2ccccc12 [3-FORMYLINDOLE] | 13.93 | –
CCOC(=O)c1c(C)nc(N)c(C#N)c1-c1cccs1 | 7.31 | –
N#CC1=C(N)Oc2ccc3ccccc3c2C1c1ccc(O)cc1 (stereo not drawn) | 8.77 | –
c1ccc(COc2ccc3[nH]ccc3c2)cc1 | -1.67 | –
CNC(=O)NC1(C(=O)O)CC1c1ccccc1 (stereo not drawn) | -11.74 | –
C=C1CN(C)c2c(C#N)cc(C#N)c(=S)n21 | 7.47 | –
